Measurements reported in PubChem BioAssay AID686978 (National Center for Advancing Translational Sciences (NCATS), 2013).
“And” between values parts separate entries of the source, which are not always exact repeats. Identical values can stand only once. Screen size: about 420,000 compounds; about 64,000 (15%) were called active. Inconclusive means that the source gave no clear call. Such entries were picked first, then a sample of the others. The call rests on the fitted dose curve; in most records, active means well fitted inhibition curve with a large enough effect; inconclusive means small, poorly fitted or top-dose-only effect; inactive means flat fitted curve, though single readings scatter. A potency beside an inconclusive call is a rough fit, not a confirmed value.

Assay: qHTS for Inhibitors of human tyrosyl-DNA phosphodiesterase 1 (TDP1): qHTS in cells in absence of CPT; further: nearly all actives have a fitted effect of over 55% in size
Settings: DT40 Tdp1-/- hTDP1 cells, no CPT, ATP luminescence, 48 h; activity change, negative = growth inhibition: at 46.2 µM (top of the series) unless noted
Procedure, shortened: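 Chicken DT40 Tdp1-/- cells complemented with human TDP1, screened without camptothecin (DMSO vehicle only), 400 cells/well. Compounds pin-transferred, cells incubated at 37 °C for at least 48 hr. Growth read as ATP-dependent luminescence (CellTiter-Glo, 30 min at RT).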
On the % scale 0 is the no-effect control and ±100 the full control effect; potency means the concentration at half of the fitted maximal effect; tags describe the fitted curve by direction and shape.

Q: With `COc1ccccc1N=c1oc2c(OC)cccc2cc1C(=O)NCc1ccco1` as the compound, how does the Potency read?
A: Its Potency is inconclusive: 14.6 µM [inhibitor, partial curve].

Q: Which Potency does the source give for `O=C(CC(=O)Nc1nc(C23CC4CC(CC(C4)C2)C3)cs1)NCCO` here?
A: Its Potency is inconclusive: 29.1 µM [inhibitor, single point].

Q: Which Potency does the source give for `CC(C)(C)c1ccc(CN(Cc2ccco2)c2cnc(S(C)(=O)=O)nc2C(=O)Nc2ccc(F)cc2)cc1` here?
A: The Potency was inconclusive: 23.1 µM [inhibitor, single point].

Q: With `O=C(C1CCC(CNS(=O)(=O)c2cccs2)CC1)N1CCCCC1` (stereo not given) as the compound, how does the Potency read?
A: The Potency was inconclusive: 2.06 µM [inhibitor, partial curve].

Q: For `CCN(CC)CCN(Cc1cc2cc3c(cc2[nH]c1=O)OCCO3)C(=S)NCCCN(C)C`, which Potency is on record?
A: Its Potency is “inactive”.

Q: For `O=[N+]([O-])c1ccc(COc2ccc(-c3[nH]ncc3-c3ccc(Cl)cc3)c(O)c2)cc1`, which Potency is on record?
A: The Potency was active: 23.1 µM.

Q: Which Potency does the source give for `CC(=O)Nc1ccc(NC(=O)C2(C)Cc3c(-c4ccccc4)ccnc3O2)cc1` (stereo not given) here?
A: The Potency was “inactive”.

Q: For `Cc1ccc(Nc2nc(=O)c3cccnc3s2)c(Br)c1`, which Potency is on record?
A: Its Potency is “inactive”.

Q: For `CO[C@@H]1CN(C)C(=O)c2cc(NC(=O)Nc3cc(F)ccc3F)ccc2OC[C@H](C)N(C(=O)c2ccccn2)C[C@@H]1C`, which Potency is on record?
A: Its Potency is inconclusive: 29.1 µM [inhibitor, single point].

Q: With `COc1ccc(CC(=O)NNC(=O)c2ccccn2)cc1` as the compound, how does the Potency read?
A: The Potency was inconclusive: 8.2 µM [inhibitor, single point].

Q: For `Cc1ccc2cc(S(=O)(=O)NCCCN3CCOCC3)ccc2c1`, which Potency is on record?
A: Its Potency is inconclusive: 18.4 µM [inhibitor, single point].

Q: For `CC(CCC(=O)O)(c1ccc(O)cc1)c1ccc(O)cc1`, which Potency is on record?
A: Its Potency is inconclusive: 5.17 µM [inhibitor, single point].

Q: With `CN(C)S(=O)(=O)c1ccc(N2CCCC2)c(C(=O)NNC(=O)c2ccc(F)cc2)c1` as the compound, how does the Potency read?
A: Its Potency is inconclusive: 0.0092 µM [inhibitor, full curve, poor fit].

Q: Which Potency does the source give for `CCc1cccc(CC)c1-n1nnc2c(sc3nc(C)cc(C)c32)c1=O` here?
A: Its Potency is inconclusive: 25.9 µM [inhibitor, single point].

Q: Which Potency does the source give for `Cc1cccc(NC(=O)c2cccc(NC(=O)c3ccco3)c2)c1` here?
A: Its Potency is “inactive”.

Q: With `Cc1cc(C)c2c(N)c(C(=O)c3ccccc3Cl)sc2n1` as the compound, how does the Potency read?
A: Its Potency is inconclusive: 29.1 µM [inhibitor, single point].

Q: For `COc1ccc(C(C(=O)NC2CCCC2)N(C(=O)c2ccoc2C)c2ccccc2)cc1` (stereo not given), which Potency is on record?
A: The Potency was inconclusive: 18.4 µM [inhibitor, single point].

Q: With `COC(=O)C1=C(C)N(CCCC(=O)O)C(=O)NC1c1cccc2ccccc12` (stereo not given) as the compound, how does the Potency read?
A: The Potency was “inactive”.

Q: With `Clc1ccc(OCc2nc3ccccc3n2Cc2ccccc2)c(Cl)c1` as the compound, how does the Potency read?
A: The Potency was inconclusive: 29.1 µM [inhibitor, single point].

Q: With `CCN(CC(=O)N1CCCC1)S(=O)(=O)c1ccc2ccccc2c1` as the compound, how does the Potency read?
A: The Potency was “inactive”.

Q: Which Potency does the source give for `CCCNC(=S)NC1CC2CCCC(C1)N2CC(C)C` (stereo not given) here?
A: The Potency was “inactive”.

Q: Which Potency does the source give for `COc1ccc(CCNC(=O)c2nnn(CC(=O)Nc3ccc(C)cc3C)c2N)cc1OC` here?
A: The Potency was “inactive”.

Q: With `CCCC#Cc1ccc2c(c1)COc1c3ccccc3nn1-2` as the compound, how does the Potency read?
A: Its Potency is inconclusive: 29.1 µM [inhibitor, single point].

Q: For `CCc1ccc(-c2cc(C)no2)cc1S(=O)(=O)NCc1ccccc1OC`, which Potency is on record?
A: Its Potency is “inactive”.

Q: For `O=C(CSc1nc(-c2ccc(F)cc2)[nH]c1-c1ccccc1)Nc1ccccc1`, which Potency is on record?
A: The Potency was active: 11.6 µM.

Q: Which Potency does the source give for `CCc1ccc(-c2nn(CC(=O)Nc3ccccc3C)c3c2cnc2ccc(C)cc23)cc1` here?
A: Its Potency is “inactive”.

Q: With `O=C1CN(C(=O)COC(=O)[C@@H]2CCCN2S(=O)(=O)c2ccc(Cl)cc2)c2ccccc2N1` as the compound, how does the Potency read?
A: Its Potency is “inactive”.

Q: For `CC(NC(=O)COc1cccnc1[N+](=O)[O-])c1ccc(Cl)cc1` (stereo not given), which Potency is on record?
A: The Potency was “inactive”.

Q: With `COc1cc(NC(=O)c2nc3ccccc3nc2N2CCCCC2)cc(OC)c1OC` as the compound, how does the Potency read?
A: Its Potency is inconclusive: 25.9 µM [inhibitor, single point].

Q: For `CCOC(=O)COc1ccc(Br)cc1/C=C1\SC(N)=NC1=O`, which Potency is on record?
A: The Potency was inconclusive: 29.1 µM [inhibitor, single point].

Q: With `CC(C)(C)C1CCc2c(sc3nnn(CCOc4ccccc4)c(=O)c23)C1` (stereo not given) as the compound, how does the Potency read?
A: The Potency was inconclusive: 29.1 µM [inhibitor, single point].

Q: With `Cc1ccc(C)c(NC(=O)c2nn(C)c3c2CS(=O)(=O)c2ccccc2-3)c1` as the compound, how does the Potency read?
A: The Potency was inconclusive: 29.1 µM [inhibitor, single point].

Q: For `C=C[C@]1(C)C[C@@H](OC(=O)CSCCN(CC)CC)[C@]2(C)C(C)CC[C@]3(CCC(=O)[C@H]32)[C@@H](C)[C@@H]1O` (stereo not given in full), which Potency is on record?
A: The Potency was active: 5.17 µM and active: 8.2 µM.

Q: With `COc1ccccc1N1CC(C(=O)Nc2ccc(S(=O)(=O)N3CCOCC3)cc2)CC1=O` (stereo not given) as the compound, how does the Potency read?
A: The Potency was “inactive”.

Q: Which activity change, negative = growth inhibition does the source give for `O=C(/C=C/c1ccco1)N(Cc1ccc(Cl)cc1)C1CCS(=O)(=O)C1` (stereo not given) here?
A: The activity change, negative = growth inhibition was inconclusive: -49.8% [inhibitor].

Q: With `Cc1cccc(-n2c(SCC(=O)NCc3ccc4c(c3)OCO4)nc3ccccc3c2=O)c1` as the compound, how does the activity change, negative = growth inhibition read?
A: The activity change, negative = growth inhibition was inconclusive: 3.48% [inhibitor].

Q: With `COC(=O)N(C)C[C@@H]1OCc2cnnn2CCCC(=O)N([C@@H](C)CO)C[C@@H]1C` as the compound, how does the Potency read?
A: The Potency was “inactive”.

Q: Which Potency does the source give for `CC1CCc2cc(F)ccc2N1C(=O)c1ccc2c(c1)OCO2` (stereo not given) here?
A: Its Potency is active: 14.6 µM.

Q: Which Potency does the source give for `Cc1ccc(C)c(NC(=O)CN2C(=O)c3cccnc3Oc3ccc(C)cc32)c1` here?
A: The Potency was inconclusive: 20.6 µM [inhibitor, single point].

Q: Which Potency does the source give for `[N-]=[N+]=NCC/C=C\C1NS(=O)(=O)OCC1O` (stereo not given) here?
A: The Potency was “inactive”.

Q: With `COc1cc(NC(=O)Nc2nnc([C@H]3C[C@H](O)[C@@H](CO)O3)s2)cc(OC)c1` as the compound, how does the Potency read?
A: The Potency was “inactive”.

Q: For `CC1=NN(C(=O)c2csc(C)c2)C(O)(C(F)(F)F)C1` (stereo not given), which Potency is on record?
A: Its Potency is active: 0.13 µM.

Q: For `O=C(Nc1ccc(N2CCCC2)cc1)c1cc([N+](=O)[O-])ccc1N1CCOCC1`, which Potency is on record?
A: The Potency was active: 23.1 µM.

Q: Which Potency does the source give for `CCCc1nc2ccccc2n1Cc1ccccc1OC` here?
A: Its Potency is inconclusive: 29.1 µM [inhibitor, single point].

Q: For `CCOc1ccc(NC(=O)c2ccc(N3CC4CC(C3)c3cccc(=O)n3C4)c(NC(=O)c3ccncc3)c2)cc1` (stereo not given), which Potency is on record?
A: Its Potency is “inactive”.

Q: Which Potency does the source give for `CCCN1CNC(=S)N(c2ccc(C(=O)OCC)cc2)C1` here?
A: Its Potency is “inactive”.

Q: Which Potency does the source give for `O=C(Cn1cnc2ccccc21)c1ccc(Cl)cc1` here?
A: The Potency was inconclusive: 23.1 µM [inhibitor, single point].

Q: With `COC(=O)c1ccc(Oc2nc(NC(C)C)nc(NC(C)C)n2)cc1` as the compound, how does the Potency read?
A: Its Potency is “inactive”.

Q: With `O=C1OC(CCl)CN1Cc1ccc([N+](=O)[O-])cc1` (stereo not given) as the compound, how does the Potency read?
A: Its Potency is “inactive”.

Q: With `COC(=O)C(NC(=O)CNS(=O)(=O)c1ccc(Br)cc1)c1ccccc1` (stereo not given) as the compound, how does the Potency read?
A: Its Potency is inconclusive: 18.4 µM [inhibitor, single point].

Q: With `Cc1ccc(Nc2nc(CSc3nnc(-c4ccc(F)cc4)n3C)cs2)cc1` as the compound, how does the Potency read?
A: Its Potency is inconclusive: 29.1 µM [inhibitor, single point].

Q: With `Nc1ccc(C(=O)OCC(=O)NC2CCS(=O)(=O)C2)cc1[N+](=O)[O-]` (stereo not given) as the compound, how does the Potency read?
A: The Potency was “inactive”.

Q: For `CCCn1c(C)cs/c1=N\C(=S)Nc1ccccc1`, which Potency is on record?
A: Its Potency is inconclusive: 20.6 µM [inhibitor, single point].

Q: With `Cc1cccc(-c2nc(CSCC(=O)NCCc3ccc(Cl)cc3)c(C)o2)c1` as the compound, how does the Potency read?
A: Its Potency is inconclusive: 29.1 µM [inhibitor, single point].

Q: With `Cc1ccc(-c2cc(C(=O)N/N=C/c3ccc(Cl)cc3)n[nH]2)o1` as the compound, how does the Potency read?
A: The Potency was inconclusive: 18.4 µM [inhibitor, single point].

Q: With `O=C(CCCn1c(=S)[nH]c2cc3c(cc2c1=O)OCO3)N1CCN(c2ccccc2)CC1` as the compound, how does the Potency read?
A: Its Potency is inconclusive: 29.1 µM [inhibitor, single point].

Q: Which Potency does the source give for `O=C(NCC1CCCN(C(=O)c2cccnc2)C1)c1ccc(-c2ccccc2)cc1` (stereo not given) here?
A: The Potency was active: 23.1 µM.

Q: With `CCc1c(O)nc(SCC(=O)N2CCc3cc(OC)c(OC)cc3[C@@H]2C)[nH]c1=O` as the compound, how does the Potency read?
A: The Potency was “inactive”.

Q: With `COC(=O)c1cc(NC(=O)Cc2ccc(OC)cc2)cc(C(=O)OC)c1` as the compound, how does the Potency read?
A: The Potency was inconclusive: 25.9 µM [inhibitor, partial curve].

Q: Which Potency does the source give for `COCCn1ccc2c(OCC(=O)Nc3ccccc3F)cccc2c1=O` here?
A: The Potency was inconclusive: 14.6 µM [inhibitor, partial curve, poor fit].

Q: With `O=C1N(c2ccccc2)c2ccccc2C1(Cc1ccncc1)Cc1ccncc1` as the compound, how does the Potency read?
A: Its Potency is inconclusive: 10.6 µM [inhibitor, partial curve, poor fit] and inconclusive: 9.44 µM [inhibitor, partial curve, poor fit] and inconclusive: 14.6 µM [inhibitor, partial curve, poor fit].

Q: Which Potency does the source give for `O=C(C=Cc1ccco1)N1CCOCC1` here?
A: The Potency was “inactive”.

Q: Which Potency does the source give for `O=C(Nc1ccc(F)cc1F)C1CCN(C(=O)c2ccc(Br)cc2)CC1` here?
A: Its Potency is inconclusive: 23.1 µM [inhibitor, single point].

Q: With `CCOc1ccc(/C=N/NC(=O)c2[nH]ncc2Br)c(O)c1` as the compound, how does the Potency read?
A: The Potency was active: 5.17 µM.

Q: Which Potency does the source give for `Cc1ccsc1CN(C)CC(=O)Nc1cccc(S(=O)(=O)N(C)c2ccccc2)c1` here?
A: Its Potency is inconclusive: 29.1 µM [inhibitor, single point].

Q: For `[O-]c1c[n+](-c2ccc(-[n+]3cc([O-])on3)cc2)no1`, which Potency is on record?
A: The Potency was inconclusive: 23.1 µM [inhibitor, partial curve].

Q: With `CCc1ccc2c(COC(=O)c3n[nH]c4ccccc34)cc(=O)oc2c1` as the compound, how does the Potency read?
A: The Potency was inconclusive: 18.4 µM [inhibitor, partial curve].

Q: Which Potency does the source give for `O=C(Nc1ccc2oc(=O)ccc2c1)c1cccnc1Cl` here?
A: The Potency was “inactive”.

Q: With `CC(C)=NNc1cc([N+](=O)[O-])cc2c1C(=O)N(C)S2=O` (stereo not given) as the compound, how does the Potency read?
A: Its Potency is inconclusive: 29.1 µM [inhibitor, single point].

Q: Which Potency does the source give for `CCOC(=O)C1(CC2CCCCO2)CCN(C(=O)Nc2ccc(C(=O)OC)cc2)CC1` (stereo not given) here?
A: The Potency was inconclusive: 23.1 µM [inhibitor, partial curve, poor fit].
